Source: US20070087411A1 (Regeneron, published 2007)

Molecular target: T1, biotinylated IGF-1 (GroPep) (Homo sapiens (Human), UniProt P05019 part only, Biotinylated. The site or sites and the number of biotins are not stated and are not carried in the letters.)
T1 construct: Added at 1 ug/ml to IGF trap molecules captured on anti-hFc antibody
Test: ELISA: trap captured on anti-hFc antibody, biotinylated IGF-1 at 1 ug/ml, streptavidin-HRP; Kd fitted with Prism
Procedure: In vitro binding activity of the fusion polypeptides. Wells were coated with 2 ug/ml of anti-hFc antibody (Pierce) overnight at 4° C. and blocked with PBS with 05% Tween and 10% BSA (PBST). IGF trap molecules were added at different dilutions. After 1 hr at room temperature, the wells were washed 4× with PBST and biotinylated IGF-1 (GroPep) added at 1 ug/ml. Streptavidin HRP (0.2 ug/ml) in PBST was added and developed for 20 min. Kd was determined using standard techniques using Prism software from Graph Pad™.

T1 sequence (P05019 49-118 limits assumed): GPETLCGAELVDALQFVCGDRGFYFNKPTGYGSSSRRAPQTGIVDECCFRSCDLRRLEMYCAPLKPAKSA

Kd: 2 nM
B1: hIGFR (1-489).hFc.CT.hFc.CT (Fc fusion)
chain: EICGPGIDIRNDYQQLKRLENCTVIEGYLHILLISKAEDYRSYRFPKLTVITEYLLLFRVAGLESLGDLFPNLTVIRGWKLFYNYALVIFEMTNLKDIGLYNLRNITRGAIRIEKNADLCYLSTVDWSLILDAVSNNYIVGNKPPKECGDLCPGTMEEKPMCEKTTINNEYNYRCWTTNRCQKMCPSTCGKRACTENNECCHPECLGSCSAPDNDTACVACRHYYYAGVCVPACPPNTYRFEGWRCVDRDFCANILSAESSDSEGFVIHDGECMQECPSGFIRNGSQSMYCIPCEGPCPKVCEEEKKTKTIDSVTSAQMLQGCTIFKGNLLINIRRGNNIASELENFMGLIEVVTGYVKIRHSHALVSLSFLKNLRLILGEEQLEGNYSFYVLDNQNLQQLWDWDHRNLTIKAGKMYFAFNPKLCVSEIYRMEEVTGTKGRQSKGDINTRNNGERASCETG[letters of human IgG1 Fc not shown]ARAVFENFLHNSIFVPRPETG[letters of human IgG1 Fc not shown]ARAVFENFLHNSIFVPRPE
notes: Self-associating construct with two Fc parts; also called hIGFIR(1-489).hFc.CTP.hFc.CTP; IGF trap molecule
